These results are taken from ChEMBL document CHEMBL4888484, “Replenishing the malaria drug discovery pipeline: Screening and hit evaluation of the MMV Hit Generation Library 1 (HGL1) against asexual blood stage Plasmodium falciparum ,using a nano luciferase reporter read-out” (2022).

Screen size: about 150,000 compounds; about 540 (0.36%) showed an effect of 50% or more. The list shows a part of the results.

This experiment deals with Plasmodium falciparum. Description: Primary screen in NF54 nanoGlo assay, in single point, at 2uM, 72h; a lower Z score goes with more inhibition. The class given is functional, Erythrocyte. To be noted: timepoint 72 hour.
`Cc1ccc(-n2nc(C)c([C@@H]3C=C[C@@H](NCc4ccc(F)cc4)C3)c2C)cc1Cl`: the “% Inhibition” value came to 30% and the Z score is -3.39.

As for `Cc1ccccc1-c1nnc([C@@H]2CCCO2)o1`, the “% Inhibition” value is -8% and the Z score worked out at 1.11.

Turning to `CNc1nc2c(s1)C(=O)NC(C)(C)C2`, the “% Inhibition” value is given as -5% and the Z score is 0.47.

`CCC(CC)c1nnc(NC(=O)Nc2ccn(C)n2)s1`: the “% Inhibition” value was found to be 8% and the Z score was -0.99.

Take `CC(C)c1nnc2n1CCN(C(=O)c1cnc(C(C)(C)C)nc1)[C@H]2C`: the “% Inhibition” value was -19% and the Z score was 1.58.

Regarding `FC(F)c1c2c(nn1-c1nc3ccccc3s1)CCCCC2`, the “% Inhibition” value is -33% and the Z score amounted to 3.85.

Regarding `COCCN(CC(=O)Nc1cc(N2CCN(C(=O)NC(C)C)CC2)ccc1Cl)C(=O)c1ccc(Cl)cc1`, the “% Inhibition” value was -16% and the Z score was determined as 1.73.

For the compound `C[C@@H](C(=O)NCC1(OCCO)CCOCC1)c1ccccc1`, the “% Inhibition” value was -9% and the Z score came out at 1.57.

On to `Cc1ccc(NC(=O)c2cccc(-n3cccn3)n2)cc1-c1ncco1`, for which the “% Inhibition” value was -20% and the Z score stood at 3.21.

As to `O=C(Nc1ccc(F)cc1)c1coc(CN2CCN(C[C@@H](O)CN3CCCCC3)CC2)n1`, the “% Inhibition” value was -1% and the Z score is on record as 0.2.

Turning to `O=S1(=O)CC(O)C(NCCC(c2ccccc2)c2ccccc2)C1` (configuration not stated), the “% Inhibition” value is recorded as -13% and the Z score was 1.68.

On to `COCC1CCN(C(=O)[C@@H]2CN(c3cnccn3)C[C@H]2COC)CC1`, for which the “% Inhibition” value is -8% and the Z score worked out at 1.27.

Take `O=C(Nc1ccc(-c2ccccn2)cn1)c1ccc2[nH]cnc2c1`: the “% Inhibition” value turned out to be 5% and the Z score is -0.44.

Turning to `O=C(NCC12CC(CO1)C2)Nc1cc(Cl)c(OCC(F)(F)F)c(Cl)c1`, the “% Inhibition” value is listed as -8% and the Z score is on record as 1.06.

For the compound `Cc1cc(C[C@H](C)Nc2nc(-c3ccccc3)nc3c2CCNC3)[nH]n1`, the “% Inhibition” value is -3% and the Z score was determined as 0.43.

On to `Cc1ccc2oc([C@H]3CCN(S(=O)(=O)c4ccc(F)cc4)C3)nc2c1`, for which the “% Inhibition” value is reported as -1% and the Z score was 0.21.

As for `Cc1ccc(-c2nc(-c3ccc4c(c3)ncn4CCC(=O)N3CCCCCC3)no2)cc1C`, the “% Inhibition” value is on record as -24% and the Z score turned out to be 3.16.

On to `COc1ccc(NC(C)=O)cc1S(=O)(=O)N(CC(=O)Nc1cccc(C)c1C)C[C@H]1CCCO1`, for which the “% Inhibition” value turned out to be 1% and the Z score is given as -0.18.

In the case of `CCn1cc(S(=O)(=O)NCCn2c(C)cnc2C2CCC2)cn1`, the “% Inhibition” value is on record as -5% and the Z score stood at 0.58.

For the compound `CC(C)Oc1ccc(N(C)C(=O)c2nc3cccnc3s2)cc1`, the “% Inhibition” value is -3% and the Z score is listed as 0.26.

For `O=C1CN(c2ccnc(C(=O)Nc3ccccc3CCC(F)(F)F)c2)CCN1`, the “% Inhibition” value is reported as -14% and the Z score was 1.63.

For the compound `COc1cc(N2CCOC(C)(C)C2)ccc1NC(=O)[C@@H]1CCC(=O)N1C`, the “% Inhibition” value came out at 4% and the Z score was -0.75.

As for `FC(F)(F)c1ccc(O[C@H]2COCCN(CC3CCCC3)C2)cc1`, the “% Inhibition” value is given as -5% and the Z score came out at 0.87.

As for `CCC(CC)C(=O)N1CCN(c2nc3nccc(-c4ccc5c(c4)OCO5)n3n2)CC1`, the “% Inhibition” value is listed as -4% and the Z score was 0.56.

Consider `N#CCn1cccc(S(=O)(=O)N2CCCCCC2)c1=O`, for which the “% Inhibition” value was -12% and the Z score stood at 1.66.

Turning to `Cc1ccc(NS(=O)(=O)c2ccc3c(c2)C(=O)N(C)c2ncccc2O3)cc1C`, the “% Inhibition” value is recorded as -10% and the Z score was 1.73.

Take `COc1cnc(NC(=O)Nc2cc(C3CC3C)n[nH]2)s1` (configuration not stated): the “% Inhibition” value is 5% and the Z score was -0.94.

For `Cc1ccc(CN2C(=O)COC[C@H]2C(=O)NCC2CC2)cc1`, the “% Inhibition” value was 1% and the Z score is recorded as -0.16.

For `Cc1cc(Cl)cc2c1NC(=O)C21NC(Cc2c[nH]c3ccccc23)C2C(=O)N(Cc3ccc4c(c3)OCO4)C(=O)C21` (configuration not stated), the “% Inhibition” value was -6% and the Z score was determined as 1.2.

Turning to `Cc1cnc(-c2cc(F)cc3cccnc23)nc1N`, the “% Inhibition” value is reported as -3% and the Z score amounted to 0.6.

For `CCc1onc(C)c1NC(=O)NCC1=CCN(C)CC1`, the “% Inhibition” value worked out at 5% and the Z score was -0.66.

Consider `Cc1ccc(S(=O)(=O)Cc2nc(-c3ccc(C(=O)Nc4ccc(C)cc4Cl)cc3)oc2C)cc1`, for which the “% Inhibition” value amounted to 29% and the Z score was -0.64.

`Cc1cc(-c2nnc(NCc3cccn3C)o2)c(C)o1`: the “% Inhibition” value is reported as 5% and the Z score is -0.44.

For `C[C@H]1C(=O)N(c2cnns2)C(=O)N1Cc1ccccc1`, the “% Inhibition” value is reported as -13% and the Z score was found to be 1.75.

Regarding `C=CCN1C[C@@H](C(=O)N2CCN(Cc3cc(C)cc(C)c3)C(=O)C2)CC1=O`, the “% Inhibition” value is given as -13% and the Z score worked out at 2.07.

In the case of `CC(NC(=O)CCC1CCCO1)c1ccc(-c2cccnc2)cc1` (configuration not stated), the “% Inhibition” value is given as -7% and the Z score amounted to 0.82.

For `O=C(c1ccccc1)N1CCN(Cc2cnc3ncccn23)CC1`, the “% Inhibition” value is recorded as -3% and the Z score is 0.3.

As to `CCn1nc(C)cc1C(=O)N1CCCC1C1CCCN1C` (configuration not stated), the “% Inhibition” value is on record as -5% and the Z score is given as 0.7.

For `O=C(O)C1CC2CCCCC2N1Cc1cc(Cl)c2c(c1)OCCO2` (configuration not stated), the “% Inhibition” value was -4% and the Z score is reported as 0.49.

On to `Cc1ccnc(Oc2cccc(C(=O)NCc3cccnc3)c2)n1`, for which the “% Inhibition” value is reported as -7% and the Z score was 0.95.

As to `COCC(C)(NC(=O)N1C[C@H]2C[C@@H](O)CC[C@H]2C1)C(F)(F)F` (some centres not stated), the “% Inhibition” value is listed as -2% and the Z score is on record as 0.45.

A word on the % Inhibition: it is the relative decrease from the control value, in per cent.
